Data taken from PubChem BioAssay AID624417 (National Center for Advancing Translational Sciences (NCATS), 2012).
The campaign covered roughly 410,000 compounds. About 6,400 (1.6%) were called active. This list was built around the results that the source calls inconclusive (neither active nor inactive); the mix of calls is not that of the screen. Calls follow the shape of the dose curve; as a rule, active = well fitted inhibition curve with a large enough effect; inconclusive = small, poorly fitted or top-dose-only effect; inactive = no such curve, though single readings can be large or run the other way. Potencies of inconclusive entries are left out as doubtful fits.

What follows are compounds tested against Glucagon-like peptide 1 receptor (Homo sapiens) (UniProt P43220) (assay: qHTS of GLP-1 Receptor Inverse Agonists (Inhibition Mode)). Details: HEK293 GLP-1R CRE-luciferase, luminescence, 24 h, GLP-1R form is constitutively active; activity change, negative = inhibition: at 38.3 µM (top of the series) unless noted.
UniProt P43220, sequence (P43220 whole entry, looked up): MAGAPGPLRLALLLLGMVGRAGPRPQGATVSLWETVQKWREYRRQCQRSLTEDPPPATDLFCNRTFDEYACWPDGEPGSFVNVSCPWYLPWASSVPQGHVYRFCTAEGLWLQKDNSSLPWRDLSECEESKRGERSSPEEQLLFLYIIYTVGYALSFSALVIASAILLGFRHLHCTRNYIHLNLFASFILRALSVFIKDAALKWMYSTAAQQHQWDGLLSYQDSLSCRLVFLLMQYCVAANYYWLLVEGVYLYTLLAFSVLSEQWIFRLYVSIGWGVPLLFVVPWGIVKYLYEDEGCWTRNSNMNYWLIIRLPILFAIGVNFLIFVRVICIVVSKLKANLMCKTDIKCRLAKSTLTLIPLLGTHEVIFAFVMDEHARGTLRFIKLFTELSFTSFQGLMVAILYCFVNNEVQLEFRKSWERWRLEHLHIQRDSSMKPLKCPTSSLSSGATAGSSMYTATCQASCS
In short: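 Inverse agonists were sought by their lowering of basal cAMP reporter luciferase output in HEK293 cells stably carrying constitutively active human GLP-1R, after 24 h compound treatment.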
% is scaled to controls: 0 for no effect and ±100 for the full control effect; potency is read from the fitted curve at half-maximal effect; tags tell the direction and shape of the fitted curve.
Also: nearly all actives have a fitted effect of over 55% in size.

Row | SMILES | Potency | activity change, negative = inhibition
1 | O=C(Cc1c(Cl)cccc1Cl)OCc1ccccn1 | inconclusive [inhibitor, single point] | 
2 | Cc1cc(OCC(=O)NNC(=S)NCC2CCCO2)cc(C)c1Cl (centres undefined) | inconclusive [inhibitor, single point] | 
3 | Cc1ccc(C)c(N/C(N)=N/c2nc(C)cc(C)n2)c1 | active: 8.91 µM | 
4 | CCCC1=C(C(=O)OCC)C(c2ccccc2OCC)NC(=O)N1C (centres undefined) | inconclusive [inhibitor, single point] | 
5 | CC(C)c1cccc(C(C)C)c1NC(=O)CNCc1ccccc1F | inconclusive [inhibitor, single point] | 
6 | CCC(CC)C(=O)Nc1nnc(S(=O)(=O)N(CC)c2ccc(OC)cc2)s1 |  | inconclusive: -66.5% [inhibitor]
7 | COc1cc(/C=C2\SC(=O)N(c3ccccc3Cl)C2=O)cc([N+](=O)[O-])c1O | inconclusive [inhibitor, partial curve, poor fit] | 
8 | COc1cccc(-n2cc(CN(C)Cc3nc(Cc4cccc(F)c4)no3)cn2)c1 | active: 10 µM | 
9 | COc1ccc(C)cc1NC(=O)COC(=O)c1c(C)nn(-c2ccccc2)c1C | inconclusive [inhibitor, partial curve, poor fit] | 
10 | Cc1c(C(=O)N2CCC(C)CC2)c(S(=O)(=O)Nc2cccc(C#N)c2)c(C)n1C |  | inactive: -3.21%
11 | Cc1ccc(NCc2cccn2-c2nnc(N3CCC(C(=O)NCc4ccccc4C)CC3)s2)cc1 | inconclusive [inhibitor, partial curve, poor fit] | 
12 | COc1ccc(CN2CCCN(CC(=O)Nc3ccc(Br)cc3F)S2(=O)=O)cc1 | inconclusive [inhibitor, single point] | 
13 | Cc1ccc(-n2ncc(C(=O)NCc3ccc4c(c3)OCO4)c2C2CCN(C(=O)OC(C)(C)C)CC2)cc1C | inconclusive [inhibitor, partial curve, poor fit] | 
14 | COc1cccc(/C=N/NC(=O)CNC(=O)c2ccc3c(c2)OCCO3)c1O | inconclusive [inhibitor, single point] | 
15 | O=C(Nc1ccc2ccccc2c1)/C(=C/c1cccc(Br)c1)NC(=O)c1ccco1 | inconclusive [inhibitor, single point] | 
16 | CCOc1ccc(CCNC(=O)CSc2nnnn2-c2ccccc2Cl)cc1OCC |  | inactive: 1.28%
17 | Cc1sc(NC(=O)CSC2=NCCS2)nc1-c1ccccc1 |  | inactive: -21.3%
18 | Cc1ccnc(NCc2ccc(Br)cc2)c1 | inconclusive [inhibitor, single point] | 
19 | O=C(NCC1CCCCC1)C12CN(Cc3ccccc3)CC1C(c1cccc([N+](=O)[O-])c1)=NO2 (centres undefined) | inconclusive [inhibitor, partial curve] | 
20 | CN(C)CCn1c2c(c(SCC(=O)Nc3cccc4ccccc34)nc1=O)CCC2 | inconclusive [inhibitor, single point] | 
21 | COC(=O)c1cccc(NC(=O)CCc2cc(OC)c(OC)c(OC)c2)c1 |  | inactive: 1.68%
22 | Cc1c(O)ccc(-c2n[nH]c(C(=O)O)c2-c2nc3ccccc3s2)c1O |  | inactive: 7.5%

Row | SMILES | Potency | activity change, negative = inhibition
23 | CCCCOc1ccc(OCCNC(=O)C2CCCN2C(=O)Nc2ccccc2)cc1 (centres undefined) | inconclusive [inhibitor, partial curve, poor fit] | 
24 | Cc1ccc(C)c(N2CCN(C(=O)CN3CCSc4ccccc43)CC2)c1 | inconclusive [inhibitor, partial curve, poor fit] | 
25 | COc1cc(C(=O)Nc2ccccc2OCc2cc(=O)n3c(C)csc3n2)cc(OC)c1OC |  | inactive: 6.05%
26 | CCOC(=O)C1=C(C)N(c2nonc2NC(C)=O)C(N)=C(C#N)C1c1ccccc1F (centres undefined) | inconclusive [inhibitor, single point] | 
27 | CC1(C)CC(=O)c2sc(NC(=O)c3cccs3)nc2C1 |  | inactive: -24.8%
28 | Cc1ccc(C)c(NC(=O)CN(C)C(=O)c2oc3c(Cl)cccc3c2C)c1 | inconclusive [inhibitor, partial curve] | 
29 | COc1ccc(/C=N/NC(=O)c2cccnc2)c2ccccc12 | inconclusive [inhibitor, single point] | 
30 | Cc1ccc(C(=O)/C=C/c2ccc3ncccc3c2)cc1 | inconclusive [inhibitor, single point] | 
31 | O=C(NC(=S)Nc1ccc(N2CCCCC2)cc1)c1ccc2c(c1)OCCO2 | inconclusive [inhibitor, full curve, poor fit] | 
32 | Cc1ccc(NC(=O)Cc2ccc3c(c2)CCCC3)cc1C | inconclusive [inhibitor, single point] | 
33 | C=CCN1CN(Cc2ccco2)CNC1=S |  | inactive: 7.05%
34 | COc1ccccc1CNC(=O)CCNS(=O)(=O)/C=C/c1ccc(C)cc1 | inconclusive [inhibitor, partial curve, poor fit] | 
35 | N#Cc1cccc(CN2CCCN(Cc3ccc(F)cc3)S2(=O)=O)c1 | inconclusive [inhibitor, single point] | 
36 | Cc1ccc(NC(=O)c2ccc(CSc3nnc(C)s3)cc2)cc1 | inconclusive [inhibitor, single point] | 
37 | Cc1ccccc1OCCOc1cccc(/C=N/NC(=O)Cc2nnc(N)s2)c1 | inconclusive [inhibitor, partial curve, poor fit] | 
38 | COc1ccc([C@H]2CC(=O)C=C(c3cccc4c3Oc3ccccc3S4)C2)cc1 | inconclusive [inhibitor, partial curve] | 
39 | NC(=S)NN=C1C2CC3CC(C2)CC1C3 | inconclusive [inhibitor, partial curve, poor fit] | 
40 | O=C(COC(=O)Cc1cccs1)NCC(=O)Nc1ccc(F)cc1 |  | inactive: 6.16%
41 | O=C(c1ccco1)N1CCN(S(=O)(=O)c2ccc(Br)s2)CC1 | inconclusive [inhibitor, single point] | 
42 | COc1ccc(N2C(=O)C(CC(=O)Nc3ccc(Cl)cc3)N(Cc3ccc4c(c3)OCO4)C2=O)cc1 (centres undefined) | inconclusive [inhibitor, single point] | 
43 | S=C(NCc1ccc2c(c1)OCO2)Nc1ccc(-c2nc3ccccc3[nH]2)cc1 | inconclusive [inhibitor, single point] | 
44 | CCCN(C#N)c1nc(NCC)nc(NC(C)C)n1 | inconclusive [inhibitor, single point] | 

Row | SMILES | Potency | activity change, negative = inhibition
45 | CC(C)C[C@H]1CNC(=S)N1C[C@H]1CCCN1C[C@H](Cc1ccc(O)cc1)N1C[C@H](Cc2ccc(O)cc2)N(CCc2ccccc2)C1=S | inconclusive [inhibitor, single point] | 
46 | CSCCC(NS(=O)(=O)c1ccccc1F)C(=O)N1CC=C(c2ccccc2)CC1 (centres undefined) | inconclusive [inhibitor, partial curve, poor fit] | 
47 | Cc1nc2ccccc2n1CC(O)Cn1c2ccccc2c2ccccc21 (centres undefined) |  | inactive: 9.24%
48 | O=S(=O)(NCCOc1ccccc1F)c1ccc(Cl)cc1F | inconclusive [inhibitor, single point] | 
49 | COc1ccccc1/C=C(/C(=O)OCC(=O)N(C)Cc1ccccc1)c1ccccc1 | inconclusive [inhibitor, partial curve, poor fit] | 
50 | CCc1ncc(CN2CCCC(C(=O)Nc3cccc(-c4ccc(F)cc4)c3)C2)cn1 (centres undefined) | inconclusive [inhibitor, single point] | 
51 | Fc1ccc(F)c(Nc2c3c(nc4ccc(Cl)cc24)CCC3)c1 | inconclusive [inhibitor, partial curve, poor fit] | 
52 | Cc1ccc(C)c(N2CCN(C(=O)CCc3nc4ccccc4[nH]3)CC2)c1 | inconclusive [inhibitor, partial curve] | 
53 | CCOc1ccc(S(=O)(=O)Nc2ccc(C(=O)NCC(c3ccccc3)N(C)C)cc2)cc1 (centres undefined) | inconclusive [inhibitor, single point] | 
54 | CC(/C=N\NC(=O)CN1CCN(S(=O)(=O)c2ccc(C)cc2)CC1)=C\c1ccccc1 | inconclusive [inhibitor, single point] | 
55 | CC1CCCCCCC1OC(=O)c1ccccc1C(=O)O (centres undefined) |  | inactive: -12.2%
56 | CC1(C(=O)NC2CCCCCC2)CCN1C(=O)Cc1ccc(-c2ccccc2)cc1 (centres undefined) | inconclusive [inhibitor, partial curve, poor fit] | 
57 | O=C(Nc1cccn(Cc2c(Cl)cccc2Cl)c1=O)C1CC1 | inconclusive [inhibitor, single point] | 
58 | CCOC(=O)c1c(NC(=S)NC)sc2c1CC(C)(C)SC2 |  | inactive: -11.6%
59 | COc1ccc(OCC(=O)O/N=C(\N)c2ccc(OC)cc2)cc1 | inconclusive [inhibitor, single point] | 
60 | O=C1COc2ccc(C(=O)/C=C/c3ccccc3)cc2N1 | inconclusive [inhibitor, single point] | 
61 | NC(Cc1ccc(F)cc1)c1csc(Nc2nncc3ccccc23)n1 (centres undefined) | inconclusive [inhibitor, single point] | 
62 | CCC1CCCCN1S(=O)(=O)c1ccccc1[N+](=O)[O-] (centres undefined) | inconclusive [inhibitor, single point] | 
63 | COc1c(C)cc(Br)cc1C(=O)Nc1cccc(NC(=O)c2ccco2)c1 | inconclusive [inhibitor, single point] | 
64 | COc1ccc2ccccc2c1/C=N\n1c(C)cc(C)c(C(N)=O)c1=O | inconclusive [inhibitor, partial curve] | 
